# The list shows a part of the results.
# Legend:
# Experiment in all cases: glycan array binding signal (z-score within array); higher = stronger binding
# Conditions in all cases: glycan notation: IUPAC condensed, linker removed
# [1] = biological target: Fuc(a1-2)Gal(b1-4)[Fuc(a1-3)]GlcNAc
# In short: (§1)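 From the Consortium for Functional Glycomics database, 3228 arrays were curated, keeping only those whose protein sequence was available. Binding is given as a within-array Z-score averaged across arrays sharing a protein sequence and across linkers. Negative Z-scores can be read as non-binding.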
# [2] = biological target: Fuc(a1-2)Gal(b1-4)[Fuc(a1-3)]GlcNAc(b1-2)Man(a1-3)[Fuc(a1-2)Gal(b1-4)[Fuc(a1-3)]GlcNAc(b1-2)Man(a1-6)]Man(b1-4)GlcNAc(b1-4)GlcNAc
# In short: as §1
# [3] = biological target: Fuc(a1-2)Gal(b1-4)[Fuc(a1-3)]GlcNAc(b1-2)[Fuc(a1-2)Gal(b1-4)[Fuc(a1-3)]GlcNAc(b1-4)]Man(a1-3)[Fuc(a1-2)Gal(b1-4)[Fuc(a1-3)]GlcNAc(b1-2)Man(a1-6)]Man(b1-4)GlcNAc(b1-4)GlcNAc
# In short: as §1
# [4] = biological target: Fuc(a1-2)Gal(b1-4)[Fuc(a1-3)]GlcNAc(b1-3)Gal(b1-4)[Fuc(a1-3)]GlcNAc
# In short: as §1
# [5] = biological target: Fuc(a1-2)Gal(b1-4)[Fuc(a1-3)]GlcNAc(b1-3)Gal(b1-4)[Fuc(a1-3)]GlcNAc(b1-3)Gal(b1-4)[Fuc(a1-3)]GlcNAc
# In short: as §1
# [6] = biological target: Fuc(a1-2)Gal(b1-4)[Fuc(a1-3)]GlcNAc(b1-3)GalNAc
# In short: as §1
# Fuc(a1-2)Gal6S(b1-4)Glc = biological target: Fuc(a1-2)Gal6S(b1-4)Glc
# In short: as §1
# [7] = biological target: Fuc(a1-2)Gal6S(b1-4)Glc6S
# In short: as §1
# [8] = biological target: Fuc(a1-2)Gal6S(b1-4)GlcNAc
# In short: as §1
# Fuc(a1-2)[Gal(a1-3)]Gal = biological target: Fuc(a1-2)[Gal(a1-3)]Gal
# In short: as §1
# [9] = biological target: Fuc(a1-2)[Gal(a1-3)]Gal(b1-3)GalNAc
# In short: as §1
# [10] = biological target: Fuc(a1-2)[Gal(a1-3)]Gal(b1-3)GlcNAc
# In short: as §1
# [11] = biological target: Fuc(a1-2)[Gal(a1-3)]Gal(b1-3)GlcNAc(b1-2)Man(a1-3)[Fuc(a1-2)[Gal(a1-3)]Gal(b1-3)GlcNAc(b1-2)Man(a1-6)]Man(b1-4)GlcNAc(b1-4)GlcNAc
# In short: as §1
# [12] = biological target: Fuc(a1-2)[Gal(a1-3)]Gal(b1-3)GlcNAc(b1-2)Man(a1-3)[Fuc(a1-2)[Gal(a1-3)]Gal(b1-3)GlcNAc(b1-2)Man(a1-6)]Man(b1-4)GlcNAc(b1-4)[Fuc(a1-6)]GlcNAc
# In short: as §1
# [13] = biological target: Fuc(a1-2)[Gal(a1-3)]Gal(b1-3)GlcNAc(b1-3)GalNAc
# In short: as §1
# [14] = biological target: Fuc(a1-2)[Gal(a1-3)]Gal(b1-4)Glc
# In short: as §1
# [15] = biological target: Fuc(a1-2)[Gal(a1-3)]Gal(b1-4)GlcNAc
# In short: as §1
# [16] = biological target: Fuc(a1-2)[Gal(a1-3)]Gal(b1-4)GlcNAc(b1-2)Man(a1-3)[Fuc(a1-2)[Gal(a1-3)]Gal(b1-4)GlcNAc(b1-2)Man(a1-6)]Man(b1-4)GlcNAc(b1-4)GlcNAc
# In short: as §1
# [17] = biological target: Fuc(a1-2)[Gal(a1-3)]Gal(b1-4)GlcNAc(b1-2)Man(a1-3)[Fuc(a1-2)[Gal(a1-3)]Gal(b1-4)GlcNAc(b1-2)Man(a1-6)]Man(b1-4)GlcNAc(b1-4)[Fuc(a1-6)]GlcNAc
# In short: as §1
# [18] = biological target: Fuc(a1-2)[Gal(a1-3)]Gal(b1-4)GlcNAc(b1-3)GalNAc
# In short: as §1
# [19] = biological target: Fuc(a1-2)[Gal(a1-3)]Gal(b1-4)[Fuc(a1-3)]Glc
# In short: as §1
# [20] = biological target: Fuc(a1-2)[Gal(a1-3)]Gal(b1-4)[Fuc(a1-3)]GlcNAc
# In short: as §1
# [21] = biological target: Fuc(a1-2)[Gal(a1-3)]Gal(b1-4)[Fuc(a1-3)]GlcNAc(b1-3)GalNAc
# In short: as §1
# [22] = biological target: Fuc(a1-2)[Gal(a1-4)]Gal(b1-4)GlcNAc
# In short: as §1
# [23] = biological target: Fuc(a1-2)[GalNAc(a1-3)]Gal
# In short: as §1
# [24] = biological target: Fuc(a1-2)[GalNAc(a1-3)]Gal(b1-3)GalNAc(a1-3)[Fuc(a1-2)]Gal(b1-4)GlcNAc
# In short: as §1
# [25] = biological target: Fuc(a1-2)[GalNAc(a1-3)]Gal(b1-3)GlcNAc
# In short: as §1
# [26] = biological target: Fuc(a1-2)[GalNAc(a1-3)]Gal(b1-3)GlcNAc(b1-2)Man(a1-3)[Fuc(a1-2)[GalNAc(a1-3)]Gal(b1-3)GlcNAc(b1-2)Man(a1-6)]Man(b1-4)GlcNAc(b1-4)GlcNAc
# In short: as §1
# [27] = biological target: Fuc(a1-2)[GalNAc(a1-3)]Gal(b1-3)GlcNAc(b1-2)Man(a1-3)[Fuc(a1-2)[GalNAc(a1-3)]Gal(b1-3)GlcNAc(b1-2)Man(a1-6)]Man(b1-4)GlcNAc(b1-4)[Fuc(a1-6)]GlcNAc
# In short: as §1
# [28] = biological target: Fuc(a1-2)[GalNAc(a1-3)]Gal(b1-3)GlcNAc(b1-3)GalNAc
# In short: as §1
binder,measurement,setting,value
Gal 9 (Canis lupus) (protein) MAFSSSQPPYLSPGVPFSGKIQGGLQDGLKITINGTILYCNGTRFAVNFHSGHSDSDIAFHFNPRFEEGGYVVCNTKQKGSWGSEERKMQMPFQMGNPFELCFMVNSCDFKVTVNGSHFTQYSHRVPFHYVDTLSITGAVQLSYISFQSPGVWQSSSAPITQTVIHTVQTTPGQPFPNPIIPPTAYPTPTYPMPFFTSIPGGLYPSKSIIVSGTVLPGAKRFHINLRSGNDIAFHLNPRFNENTVVRNMQINNSWGSEERSLPRKMPFVQGQSFSVWIMCEGHCFKVAVDGEHLFEYYHRLKNLLAINNMEVAGDVQLTHVQT,glycan array binding signal (z-score),[1],-0.338
same,glycan array binding signal (z-score),[2],-0.296
same,glycan array binding signal (z-score),[3],-0.226
same,glycan array binding signal (z-score),[4],-0.344
same,glycan array binding signal (z-score),[5],-0.321
same,glycan array binding signal (z-score),[6],-0.26
same,glycan array binding signal (z-score),Fuc(a1-2)Gal6S(b1-4)Glc,-0.303
same,glycan array binding signal (z-score),[7],-0.345
same,glycan array binding signal (z-score),[8],-0.354
same,glycan array binding signal (z-score),Fuc(a1-2)[Gal(a1-3)]Gal,-0.34
same,glycan array binding signal (z-score),[9],0.202
same,glycan array binding signal (z-score),[10],0.302
same,glycan array binding signal (z-score),[11],0.321
same,glycan array binding signal (z-score),[12],-0.04
same,glycan array binding signal (z-score),[13],0.159
same,glycan array binding signal (z-score),[14],0.163
same,glycan array binding signal (z-score),[15],0.159
same,glycan array binding signal (z-score),[16],1.83
same,glycan array binding signal (z-score),[17],0.172
same,glycan array binding signal (z-score),[18],-0.033
same,glycan array binding signal (z-score),[19],-0.343
same,glycan array binding signal (z-score),[20],-0.332
same,glycan array binding signal (z-score),[21],-0.323
same,glycan array binding signal (z-score),[22],-0.339
same,glycan array binding signal (z-score),[23],-0.346
same,glycan array binding signal (z-score),[24],0.237
same,glycan array binding signal (z-score),[25],1.02
same,glycan array binding signal (z-score),[26],1.17
same,glycan array binding signal (z-score),[27],0.16
same,glycan array binding signal (z-score),[28],0.206

# From the supplement of paper PMC8728848
